In the RNAGym collection of RNA variant scans (doi:10.1093/nar/gkz1192) one finds self-cleavage data, which are given here for 34 variants.

Read counts are not given, so values of variants with three or more changes are uncertain.

The chains are these.
B1: CPEB3 Ribozyme (parent)
chain: UAACAGGGGGCCACAGCAGAAGCGUUCACGUCGCAGCCCCUGUCAGAUUCUGGUGAAUCUGCGAAUUCUGCUGUAUAUCUC

Variants of B1 are the subject of the data set. Kind of data set: self-cleavage, relative activity (ratio to wild type); higher = more cleavage; in vitro, sequencing. In outline: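 Relative activity compares each variant's cleaved/total read fraction with that of the unmutated ribozyme. To get these fractions, barcoded CPEB3 ribozyme libraries from rounds of error-prone PCR were transcribed with T7 RNA polymerase for 5 hours at 37°C and then given 15 min of DNase I treatment before EDTA was added. The RNAs were reverse transcribed with template switching and sequenced on Illumina, and DNA sequencing linked barcodes to variants. A minimum of 5 reads applied, and three batches were averaged.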
Regarding UAACAGGGGGCCACAGCAGAAGCGUUCACGUCGCAGCCCCUGUCAGACUCUGGCGAAUCCGCGAAUACUGCUGUAUAUCAC, the self-cleavage is 0.1.

Turning to UAACAGGGGGCCACAGCAGAAGCGUUCACGUCGCAGCCCCUGUCAGACUCUGGCGAAUCUGCUAAUUCUGCUGUAUGUCUC, the self-cleavage amounted to 0.44.

On to UAACAGGGGGCCACAGCAGAAGCGUUCACGUCGCAGCCCCUGUCAGACUCUGGUGAAUCUGCGAAUUCCGCUGUAUAUCCC, for which the self-cleavage was 0.48.

With UAACAGGGGGCCACAGCAGAAGCGUUCACGUCGCAGCCCCUGUCAGACUCUGGUGAAUCUGCGAAUUCUGCAGUAUCUCUC, the self-cleavage stood at 0.42.

Turning to UAACAGGGGGCCACAGCAGAAGCGUUCACGUCGCAGCCCCUGUCAGACUCUAGCGAAUCUGCGAAUUCUGCUGUAUAUCUC, the self-cleavage turned out to be 0.55.

With UAACAGGGGGCCACAGCAGAAGCGUUCACGUCGCAGCCCCUGUCAGACUCAGGUAAAUCUGCGGUCUCUGCUGUAUACCUC, the self-cleavage is 0.24.

With UAACAGGGGGCCACAGCAGAAGCGUUCACGUCGCAGCCCCUGUCAGACCCUGGUGAACCUGCGAAUUAUGCUGUAUAUCUC, the self-cleavage was 0.16.

On to UAACAGGGGGCCACAGCAGAAGCGUUCACGUCGCAGCCCCUGUCAGACUCUGGUGAAUCUGCGAAUUCUGCGGUACAUCUC, for which the self-cleavage turned out to be 0.32.

For UAACAGGGGGCCACAGCAGAAGCGUUCACGUCGCAGCCCCUGUCAGACUCUGGUGAAUCUGCGAAUUCAGCUGCAUAUCUC, the self-cleavage amounted to 0.52.

For the variant UAACAGGGGGCCACAGCAGAAGCGUUCACGUCGCAGCCCCUGUCAGACUCCGGUGUAUCAGCGAAUUCUGCUGUAUAUCAC, the self-cleavage was 0.12.

For UAACAGGGGGCCACAGCAGAAGCGUUCACGUCGCAGCCCCUGUCAGACUCUGGCGAAACUGCGAAUUCUGCUGUAUAUCUC, the self-cleavage was 0.15.

UAACAGGGGGCCACAGCAGAAGCGUUCACGUCGCAGCCCCUGUCAGACUCUGGUGAAUCUGCGAAUUCUGCUGGUUAUCUC: the self-cleavage turned out to be 0.64.

Regarding UAACAGGGGGCCACAGCAGAAGCGUUCACGUCGCAGCCCCUGUCAGACUCUGGUGAAUCCGCGAAUUCUGCUGUACAUCUC, the self-cleavage came to 0.41.

In the case of UAACAGGGGGCCACAGCAGAAGCGUUCACGUCGCAGCCCCUGUCAGACUCUGGUGAAUCUGCGAAUACUGCCGUAUAUCUC, the self-cleavage was 0.36.

For UAACAGGGGGCCACAGCAGAAGCGUUCACGUCGCAGCCCCUGUCAGACCCUGGAGAAUCUGCGAAUUCUGCUGUAUAUCUC, the self-cleavage worked out at 0.32.

As for UAACAGGGGGCCACAGCAGAAGCGUUCACGUCGCAGCCCCUGUCAGACUCUGGUGAAUCUGCAAAUUCUGCAGUAUAUCUC, the self-cleavage amounted to 0.27.

Take UAACAGGGGGCCACAGCAGAAGCGUUCACGUCGCAGCCCCUGUCAGACUCUGGUGAAUCUGCGAAUUCCGCUGUUUAUCUC: the self-cleavage is 0.35.

In the case of UAACAGGGGGCCACAGCAGAAGCGUUCACGUCGCAGCCCCUGUCAGACUCUGGUGAAUCCGCGAAUUCCGCUGUAUACCUC, the self-cleavage was found to be 0.13.

Turning to UAACAGGGGGCCACAGCAGAAGCGUUCACGUCGCAGCCCCUGUCAGACUCUGGAGAAUCUGCGGAUCCUGCUGUAUAGCUC, the self-cleavage turned out to be 0.1.

UAACAGGGGGCCACAGCAGAAGCGUUCACGUCGCAGCCCCUGUCAGACUCUGGCGGAUCUGUGGAUUCUGCUGUAUAUCUU: the self-cleavage is 0.12.

Regarding UAACAGGGGGCCACAGCAGAAGCGUUCACGUCGCAGCCCCUGUCAGACUCAGGUGAAUCUGCGAAUGCUGCUGUAUAUCUC, the self-cleavage is 0.17.

For UAACAGGGGGCCACAGCAGAAGCGUUCACGUCGCAGCCCCUGUCAGACUCUGGUGAAUCUGCGAAUUCCGCUAUAUAUCUC, the self-cleavage was 0.16.

Regarding UAACAGGGGGCCACAGCAGAAGCGUUCACGUCGCAGCCCCUGUCAGACUCUGGUGAAUCGGCGAAUCCUGCUGUAUAUCUC, the self-cleavage is 0.2.

Consider UAACAGGGGGCCACAGCAGAAGCGUUCACGUCGCAGCCCCUGUCAGACUCUUGUGAAUCUGCGAGUUCUGCUGUAUACCUC, for which the self-cleavage stood at 0.2.

UAACAGGGGGCCACAGCAGAAGCGUUCACGUCGCAGCCCCUGUCAGACUCUGGUGAAUCCGCGAAUUCUGCUGAAUAUCUC: the self-cleavage was determined as 0.16.

With UAACAGGGGGCCACAGCAGAAGCGUUCACGUCGCAGCCCCUGUCAGACUCCGGUGAAUCUGCGCAUUCUGCUGUAUAUCUC, the self-cleavage turned out to be 0.19.

As for UAACAGGGGGCCACAGCAGAAGCGUUCACGUCGCAGCCCCUGUCAGACUCCGGUGAAUCUGCGAAUUCUGCUGUAUACCUC, the self-cleavage amounted to 0.32.

Consider UAACAGGGGGCCACAGCAGAAGCGUUCACGUCGCAGCCCCUGUCAGACUCUGGCGAACCUGCGAAUUCUGCAGUAUAUCUC, for which the self-cleavage came out at 0.14.

For UAACAGGGGGCCACAGCAGAAGCGUUCACGUCGCAGCCCCUGUCAGACUCUGGUGAAUCUGCGAAUACUGCUGCAUAUCUC, the self-cleavage came out at 0.44.

As for UAACAGGGGGCCACAGCAGAAGCGUUCACGUCGCAGCCCCUGUCAGACUCUGGUGAAUCAGCGAAUUCUGCUGUAUCUCUC, the self-cleavage turned out to be 0.14.

For UAACAGGGGGCCACAGCAGAAGCGUUCACGUCGCAGCCCCUGUCAGACUCUGGUGAAUCUGUGAGUUCUGCUGUAUAUCUC, the self-cleavage was 0.15.

Take UAACAGGGGGCCACAGCAGAAGCGUUCACGUCGCAGCCCCUGUCAGACUCUGGUAAAUCUGCGAAUUCUGCUGUAUUUCUC: the self-cleavage is 0.25.

Take UAACAGGGGGCCACAGCAGAAGCGUUCACGUCGCAGCCCCUGUCAGACUCCGGUGAAUCUGCGAAUUCUGCUGUAUGUCUC: the self-cleavage came to 0.69.

Take UAACAGGGGGCCACAGCAGAAGCGUUCACGUCGCAGCCCCUGUCAGACUCUGGUGAAUCUGCGAAUUUUGCGGUAUAUCUC: the self-cleavage is 0.25.
